Measurements from publication PMC4081100.
This is a selection; strong and weak results do not stand in their true shares. For some of these results: At the low end of the ranking the order means little. The list shows a part of the results. For some of these results: Construct or isoform of the protein are uncertain.

Assays:
Experiment in all cases: universal protein binding microarray (PBM)
Conditions in all cases: transcription factors of Arabidopsis thaliana; high values mean tight binding; most listed sequences are background and not binding sites; double strand, one strand shown
GST-ANAC019 NAC domain = target: T1, GST-ANAC019 NAC domain (UniProt Q9C932)
T1 sequence: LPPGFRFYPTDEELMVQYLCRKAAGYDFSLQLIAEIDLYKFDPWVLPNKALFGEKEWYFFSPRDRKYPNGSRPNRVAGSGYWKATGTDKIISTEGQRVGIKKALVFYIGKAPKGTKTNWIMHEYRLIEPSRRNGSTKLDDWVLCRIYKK

GST-ATAF1 NAC domain = target: T2, GST-ATAF1 NAC domain (UniProt Q39013)
T2 sequence: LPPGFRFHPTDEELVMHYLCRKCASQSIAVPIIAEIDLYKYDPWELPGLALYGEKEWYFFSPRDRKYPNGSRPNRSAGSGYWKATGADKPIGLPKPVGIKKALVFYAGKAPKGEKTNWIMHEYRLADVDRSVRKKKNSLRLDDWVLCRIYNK

GST-NAP(1-166) = target: T3, GST-NAP(1-166) (UniProt O49255)
T3 sequence: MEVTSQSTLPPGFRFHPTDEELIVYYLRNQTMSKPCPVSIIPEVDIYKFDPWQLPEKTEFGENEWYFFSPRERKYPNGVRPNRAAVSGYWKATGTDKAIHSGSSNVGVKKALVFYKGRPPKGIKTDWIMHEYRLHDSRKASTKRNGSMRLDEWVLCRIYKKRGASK

GST-NTL8 NAC domain = target: T4, GST-NTL8 NAC domain (UniProt Q9XIN7)
T4 sequence: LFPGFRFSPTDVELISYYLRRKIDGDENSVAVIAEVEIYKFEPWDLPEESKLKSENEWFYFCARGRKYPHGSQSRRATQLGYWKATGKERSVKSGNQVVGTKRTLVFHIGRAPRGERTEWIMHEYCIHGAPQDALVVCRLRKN

[1] = target: T5, GST-VOZ2 (Arabidopsis thaliana) (UniProt Q9SLB9)
T5 sequence: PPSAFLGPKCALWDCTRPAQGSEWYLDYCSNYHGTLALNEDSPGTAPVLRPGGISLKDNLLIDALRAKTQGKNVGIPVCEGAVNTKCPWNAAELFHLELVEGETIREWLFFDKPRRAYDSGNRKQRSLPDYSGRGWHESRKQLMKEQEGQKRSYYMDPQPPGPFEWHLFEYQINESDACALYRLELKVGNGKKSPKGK

GST-WRKY1(266-371) = GST-WRKY1(266-371) (UniProt Q9SI37)
UniProt Q9SI37, sequence (Q9SI37 266-371): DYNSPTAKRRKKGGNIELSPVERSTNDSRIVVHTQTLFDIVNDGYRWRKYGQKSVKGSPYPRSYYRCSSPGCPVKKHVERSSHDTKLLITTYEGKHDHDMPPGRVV

GST-NTL6(1-168) = GST-NTL6(1-168) (UniProt Q9SCK6)
GST-NST2(1-184) = target: T6, GST-NST2(1-184) (UniProt Q9M274)
T6 sequence: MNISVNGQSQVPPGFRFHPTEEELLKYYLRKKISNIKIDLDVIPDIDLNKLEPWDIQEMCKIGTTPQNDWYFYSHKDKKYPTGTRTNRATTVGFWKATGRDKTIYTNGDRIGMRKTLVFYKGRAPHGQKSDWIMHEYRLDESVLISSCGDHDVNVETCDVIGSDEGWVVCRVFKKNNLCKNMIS

GST-ANAC055(1-171) = target: T7, GST-ANAC055(1-171) (UniProt Q9LDY8)
T7 sequence: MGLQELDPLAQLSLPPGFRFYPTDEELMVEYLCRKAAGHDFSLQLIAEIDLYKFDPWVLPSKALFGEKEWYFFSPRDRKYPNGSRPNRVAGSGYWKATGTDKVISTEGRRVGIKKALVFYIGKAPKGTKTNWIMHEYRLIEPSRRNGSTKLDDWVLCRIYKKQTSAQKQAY

[2] = target: T8, GST-ANAC092(1-285) full length (UniProt Q9FKA0)
T8 sequence: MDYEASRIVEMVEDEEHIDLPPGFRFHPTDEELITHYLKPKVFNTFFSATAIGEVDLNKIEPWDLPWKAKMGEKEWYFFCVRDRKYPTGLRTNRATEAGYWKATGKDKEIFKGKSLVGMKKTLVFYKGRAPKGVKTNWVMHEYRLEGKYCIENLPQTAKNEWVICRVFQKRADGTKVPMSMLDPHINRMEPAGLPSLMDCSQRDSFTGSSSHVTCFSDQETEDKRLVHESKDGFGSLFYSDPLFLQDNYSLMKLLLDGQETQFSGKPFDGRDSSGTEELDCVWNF

GST-ANAC092(1-176) = target: T9, GST-ANAC092(1-176) (UniProt Q9FKA0)
T9 sequence: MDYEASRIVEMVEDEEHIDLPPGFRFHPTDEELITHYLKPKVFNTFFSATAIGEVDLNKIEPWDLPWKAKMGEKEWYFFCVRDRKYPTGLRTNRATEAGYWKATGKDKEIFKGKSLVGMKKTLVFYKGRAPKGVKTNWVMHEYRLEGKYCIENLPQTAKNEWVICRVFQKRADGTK

In the case of AAGCAACA, the binding signal (GST-ANAC019 NAC domain) was -0.111 E-score, the binding signal (GST-ATAF1 NAC domain) was 0.0645 E-score and the binding signal (GST-NAP(1-166)) was -0.0279 E-score. It also gave a binding signal (GST-NTL8 NAC domain) of 0.194 E-score, a binding signal [1] of 0.103 E-score and a binding signal (GST-WRKY1(266-371)) of 0.0315 E-score.

ATTCCGTG gave a binding signal (GST-NTL6(1-168)) of 0.129 E-score, a binding signal (GST-NAP(1-166)) of 0.329 E-score and a binding signal (GST-NTL8 NAC domain) of -0.0124 E-score. The binding signal [1] was -0.064 E-score and the binding signal (GST-WRKY1(266-371)) was -0.0779 E-score.

AAGCGTAA was tested, and the binding signal (GST-ANAC019 NAC domain) was 0.168 E-score, the binding signal (GST-NST2(1-184)) was 0.212 E-score and the binding signal (GST-NTL8 NAC domain) was 0.0159 E-score. It also gave a binding signal [1] of 0.0143 E-score and a binding signal (GST-WRKY1(266-371)) of -0.08 E-score.

With CTAGGAAA the binding signal (GST-NTL6(1-168)) was 0.188 E-score, the binding signal (GST-NAP(1-166)) was 0.0147 E-score and the binding signal [1] was 0.0912 E-score. The binding signal (GST-WRKY1(266-371)) was 0.0289 E-score.

With ATACGTAT the binding signal (GST-NTL6(1-168)) was 0.12 E-score, the binding signal (GST-NAP(1-166)) was 0.445 E-score and the binding signal (GST-NTL8 NAC domain) was 0.0214 E-score. The binding signal [1] was 0.112 E-score and the binding signal (GST-WRKY1(266-371)) was -0.0155 E-score.

With AAGCGTGT the binding signal (GST-NTL6(1-168)) was -0.0336 E-score, the binding signal (GST-NAP(1-166)) was 0.133 E-score and the binding signal (GST-NTL8 NAC domain) was -0.0697 E-score. The binding signal [1] was 0.00139 E-score and the binding signal (GST-WRKY1(266-371)) was 0.014 E-score.

ACACGCGA was tested, and the binding signal (GST-ANAC019 NAC domain) was -0.00339 E-score, the binding signal (GST-ANAC055(1-171)) was 0.0222 E-score and the binding signal (GST-ATAF1 NAC domain) was 0.0172 E-score. The binding signal (GST-NAP(1-166)) was 0.147 E-score, the binding signal (GST-NST2(1-184)) was 0.212 E-score and the binding signal (GST-NTL8 NAC domain) was 0.018 E-score. For the same sequence, the binding signal [1] was 0.0778 E-score and the binding signal (GST-WRKY1(266-371)) was -0.0236 E-score.

For CTTAAGTA, the binding signal (GST-NTL6(1-168)) was 0.416 E-score, the binding signal [2] was 0.198 E-score and the binding signal (GST-NAP(1-166)) was 0.0567 E-score. For the same sequence, the binding signal (GST-NST2(1-184)) was 0.207 E-score, the binding signal [1] was 0.112 E-score and the binding signal (GST-WRKY1(266-371)) was -0.0177 E-score.

For AAGTAAGC, the binding signal (GST-NTL6(1-168)) was 0.404 E-score, the binding signal (GST-ATAF1 NAC domain) was 0.199 E-score and the binding signal (GST-NTL8 NAC domain) was 0.337 E-score. The binding signal [1] was -0.0642 E-score and the binding signal (GST-WRKY1(266-371)) was -0.073 E-score.

ATAGCGTG gave a binding signal (GST-NTL6(1-168)) of 0.0569 E-score, a binding signal (GST-NST2(1-184)) of 0.332 E-score and a binding signal (GST-NTL8 NAC domain) of -0.0447 E-score. For the same sequence, the binding signal [1] was 0.0483 E-score and the binding signal (GST-WRKY1(266-371)) was -0.0469 E-score.

In the case of ACGTCATC, the binding signal (GST-NTL6(1-168)) was -0.0183 E-score, the binding signal (GST-NTL8 NAC domain) was -0.0287 E-score and the binding signal [1] was -0.0468 E-score. The binding signal (GST-WRKY1(266-371)) was 0.0494 E-score.

Work on AATGCGTG yielded a binding signal (GST-NTL6(1-168)) of 0.147 E-score, a binding signal (GST-ANAC019 NAC domain) of 0.324 E-score and a binding signal [2] of 0.44 E-score. It also gave a binding signal (GST-NST2(1-184)) of 0.243 E-score, a binding signal (GST-NTL8 NAC domain) of -0.00978 E-score and a binding signal [1] of 0.185 E-score.

GTGACGTA gave a binding signal [2] of 0.452 E-score, a binding signal (GST-NTL8 NAC domain) of -0.0309 E-score and a binding signal [1] of 0.149 E-score. For the same sequence, the binding signal (GST-WRKY1(266-371)) was 0.0187 E-score.

Sequence AAGTCTAC has a binding signal (GST-NTL6(1-168)) of 0.202 E-score, a binding signal (GST-ANAC019 NAC domain) of 0.0378 E-score and a binding signal [2] of 0.024 E-score. For the same sequence, the binding signal (GST-NAP(1-166)) was 0.00158 E-score, the binding signal (GST-NTL8 NAC domain) was 0.00999 E-score and the binding signal [1] was -0.0462 E-score.

Sequence GTCACGCA has a binding signal (GST-ANAC092(1-176)) of 0.319 E-score, a binding signal (GST-NTL6(1-168)) of -0.0736 E-score and a binding signal (GST-ANAC019 NAC domain) of 0.307 E-score. The binding signal (GST-ANAC055(1-171)) was 0.236 E-score, the binding signal (GST-NTL8 NAC domain) was -0.171 E-score and the binding signal [1] was 0.0997 E-score.

GTACGCTA gave a binding signal (GST-NAP(1-166)) of 0.219 E-score, a binding signal (GST-NTL8 NAC domain) of 0.129 E-score and a binding signal [1] of 0.195 E-score. The binding signal (GST-WRKY1(266-371)) was -0.0111 E-score.

Work on GCGTGCAC yielded a binding signal (GST-ANAC092(1-176)) of 0.372 E-score, a binding signal (GST-NTL6(1-168)) of -0.0254 E-score and a binding signal (GST-ANAC019 NAC domain) of 0.255 E-score. The binding signal (GST-NST2(1-184)) was 0.169 E-score, the binding signal (GST-NTL8 NAC domain) was -0.1 E-score and the binding signal [1] was 0.0495 E-score.

GTAAGTCA gave a binding signal (GST-ANAC092(1-176)) of 0.109 E-score, a binding signal (GST-NTL6(1-168)) of 0.283 E-score and a binding signal (GST-ANAC019 NAC domain) of 0.134 E-score. The binding signal (GST-ANAC055(1-171)) was 0.228 E-score, the binding signal (GST-ATAF1 NAC domain) was 0.238 E-score and the binding signal (GST-NTL8 NAC domain) was -0.0311 E-score. It also gave a binding signal [1] of 0.125 E-score.

With GTTCCGTA the binding signal (GST-NTL6(1-168)) was -0.0177 E-score, the binding signal (GST-NST2(1-184)) was 0.179 E-score and the binding signal (GST-NTL8 NAC domain) was 0.0478 E-score. It also gave a binding signal [1] of 0.0106 E-score.

TACGTCAA showed a binding signal (GST-NTL6(1-168)) of -0.0544 E-score, a binding signal (GST-ANAC019 NAC domain) of 0.216 E-score and a binding signal (GST-NAP(1-166)) of 0.241 E-score. The binding signal (GST-NTL8 NAC domain) was -0.135 E-score and the binding signal [1] was 0.0791 E-score.

With CGTCAAAC the binding signal (GST-NTL6(1-168)) was 0.0906 E-score, the binding signal (GST-ANAC019 NAC domain) was 0.0928 E-score and the binding signal (GST-NAP(1-166)) was 0.0647 E-score. The binding signal (GST-NST2(1-184)) was 0.159 E-score, the binding signal (GST-NTL8 NAC domain) was -0.00245 E-score and the binding signal [1] was 0.231 E-score.

Work on CGTGCACG yielded a binding signal (GST-NTL6(1-168)) of 0.00273 E-score, a binding signal (GST-NAP(1-166)) of 0.378 E-score and a binding signal (GST-NST2(1-184)) of 0.221 E-score. For the same sequence, the binding signal (GST-NTL8 NAC domain) was 0.0868 E-score and the binding signal [1] was -0.0907 E-score.

Work on CAACACGC yielded a binding signal (GST-NTL6(1-168)) of 0.0229 E-score, a binding signal (GST-NST2(1-184)) of 0.229 E-score and a binding signal [1] of -0.0588 E-score.

CTTGCGTA showed a binding signal (GST-NTL6(1-168)) of 0.0265 E-score, a binding signal (GST-ANAC019 NAC domain) of 0.382 E-score and a binding signal (GST-NST2(1-184)) of 0.332 E-score. The binding signal [1] was 0.0472 E-score.
